This is an account of results in article PMC12275093.

No constants are given. Whether binding was seen depends on the method and setting. In cells and extracts the contact can be indirect. Tags and fused reporters may be left off the sequences shown.

One assay has as its target T1, Myc-PABPN1 ΔEP (UniProt Q86U42).
T1 sequence: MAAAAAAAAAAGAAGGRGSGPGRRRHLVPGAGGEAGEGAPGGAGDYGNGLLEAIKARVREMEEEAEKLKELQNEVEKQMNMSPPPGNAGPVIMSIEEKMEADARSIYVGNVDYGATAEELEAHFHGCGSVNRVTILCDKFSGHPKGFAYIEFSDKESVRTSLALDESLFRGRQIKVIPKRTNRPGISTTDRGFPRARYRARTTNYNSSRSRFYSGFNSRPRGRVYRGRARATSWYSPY
Kind of assay: co-IP; anti-Myc IP from lysate of HEK293T cells co-transfected with Myc-tagged PABPN1 deletion mutants and Flag-QKI-6.

In the next assay the target is T2, Myc-PABPN1 ΔC (UniProt Q86U42).
T2 sequence: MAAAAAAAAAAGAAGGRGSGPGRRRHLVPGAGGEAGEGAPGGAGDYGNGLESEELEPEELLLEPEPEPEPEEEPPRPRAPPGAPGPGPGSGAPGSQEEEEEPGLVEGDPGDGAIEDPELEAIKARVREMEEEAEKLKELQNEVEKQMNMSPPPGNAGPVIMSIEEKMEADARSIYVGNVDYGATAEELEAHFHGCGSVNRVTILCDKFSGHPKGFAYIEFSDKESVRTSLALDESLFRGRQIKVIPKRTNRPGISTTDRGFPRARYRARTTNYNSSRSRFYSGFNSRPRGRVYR
The assay is described as above.

B1: Flag-QKI-6 (protein, UniProt Q96PU8-9 1-319)
chain: MVGEMETKEKPKPTPDYLMQLMNDKKLMSSLPNFCGIFNHLERLLDEEISRVRKDMYNDTLNGSTEKRSAELPDAVGPIVQLQEKLYVPVKEYPDFNFVGRILGPRGLTAKQLEAETGCKIMVRGKGSMRDKKKEEQNRGKPNWEHLNEDLHVLITVEDAQNRAEIKLKRAVEEVKKLLVPAAEGEDSLKKMQLMELAILNGTYRDANIKSPALAFSLAATAQAAPRIITGPAPVLPPAALRTPTPAGPTIMPLIRQIQTAVMPNGTPHPTAAIVPPGPEAGLIYTPYEYPYTLAPATSILEYPIEPSGVLGMAFPTKG
Consider B1, for which the binding result with Myc-PABPN1 ΔEP and with Myc-PABPN1 ΔC was “no binding” in each case.
